For one series, the target named is T1, RhPD-L1 (Macaca mulatta, UniProt H9Z833).
T1 construct: purchased Sino Biological Inc. 90251-C02H
Put plainly: Biacore kinetic analysis on immobilized RhPD-L1. It counts as binding, rhesus monkey. The conditions noted are these: His6-tagged Z variants. As for the experimental part:
Kinetic constants (ka and kd) and affinities (KD) for hPD-L1 were determined for the His6-tagged Z variants Z13166 (SEQ ID NO:1), Z13178 (SEQ ID NO:2), Z13359 (SEQ ID NO:3) and Z13398 (SEQ ID NO:4) using a Biacore 2000 instrument (GE Healthcare). All four Z variants were also tested for binding against the sequence-related proteins hPD-L2, hB7-H3, hB7-H4. Z13166 and Z13398 were further analyzed against mPD-L1 (mouse PD-L1 Fc Chimera, R&D Systems, cat. no. 1019-B7) and Z13178 and Z13359 were analyzed against rhesus monkey PD-L1 (RhPD-L1; rhesus PD-L1/Fc Chimera, Sino Biological Inc., cat. no. 90251-C02H)
hPD-L1, hPD-L2, hB7-H3, hB7-H4, mPD-L1 and RhPD-L1 were immobilized in separate flow cells on the carboxylated dextran layer of different CM5 chip surfaces (GE Healthcare, cat. no. BR100012). The immobilization was performed using amine coupling chemistry according to the manufacturers protocol and using HBS-EP (0.01 M HEPES pH 7.4, 0.15 M NaCl, 3 mM EDTA, 0.005% v/v Surfactant P20, GE Healthcare, cat. no. BR100188) as running buffer. In a first set of experiments, in which Z13166 and Z13398 were analyzed, the ligand immobilization levels on the surfaces were 468-894 RU for hPD-L1, 482 RU for mPD-L1, 537-742 RU for hPD-L2, 383 RU for hB7-H3, and 538-659 RU for hB7-H4. One flow cell surface on each chip was activated and deactivated for use as blank during analyte injections. In the kinetic experiment, HBS-EP was used as running buffer and the flow rate was 50 μl/min. The analytes, i.e. the Z variants, were each diluted in HBS-EP buffer within a concentration range of 1000 to 0.01 nM and injected for 5 min, followed by dissociation in running buffer for 15-25 min. After dissociation, the surfaces were regenerated with one or two injections of 0.1% SDS. Kinetic constants were calculated from the sensorgrams using the Langmuir 1:1 model of BiaEvaluation software 4.1 (GE Healthcare). In a second set of experiments, in which Z13178 and Z13359 were analyzed, the ligand immobilization levels on the surfaces were 1030 RU for hPD-L1, 1060 RU for RhPD-L1, 1070 RU for hPD-L2, 1090 RU for hB7-H3, and 770 RU for hB7-H4. Analyses were performed essentially as described above for the first set of experiments, but using a flow rate of 30 μl/min and the Z variants were injected at concentrations of 5 and 50 nM over chips immobilized with hPD-L1 and RhPD-L1, and at a concentration of 500 nM over immobilized hPD-L2, hB7-H3 and hB7-H4,

Series [1] concerns PD-L1 expressing THP-1 cells. The series can be described thus: Cell binding analysis by FACS. It counts as cell-based. The conditions noted are these: THP-1 cells stimulated with IFNγ overnight; His-tagged Z variants 10 μg/ml, antibody 1 μg/ml; normalized against a positive control Z variant. The procedure: The potential of two selected Z variants, Z13166 (SEQ ID NO:1) and Z13398 (SEQ ID NO:4), to bind PD-L1 expressing cells was investigated using Fluorescence Activated Cell Sorting (FACS). THP-1 cells, cultivated in RPMI (Lonza, cat. no. BE12-702F) containing 10% FBS, were stimulated with 10 ng/ml IFNg (R&D Systems, cat. no. 285-IF-100) overnight which results in up-regulation of PD-L1. 150,000 stimulated and unstimulated cells were pipetted per well of a v-bottomed 96 well plate (Nunc, cat. no. 277143) and the cells in the plate were subsequently pelleted at 400 g for 3 min at RT. The supematants were removed and the cells were resuspended in 100 μl PBS plus 2.5% FBS (staining buffer) containing 10 μg/ml of the different His-tagged Z variants. […] Cells incubated with buffer alone were used as negative controls. The cells were incubated for 1 h at 8° C. in the dark, washed twice with 100 μl staining buffer and resuspended in 100 μl of staining buffer containing a goat anti-Z antibody (produced in house) at a concentration of. 5 μg/ml. Cells stained with the positive control were treated with buffer only. […] Data from 10,000 cells were obtained using a FACS Calibur (Beckman Coulter) and the data was analyzed using Flowing software 2.5.0 (Turku University). Mean fluorescence intensity (MFI) was used as a read out of binding capacity.

Series [2] can be described thus: Circular dichroism (CD) spectroscopy with variable temperature measurement. The series is classed as physicochemical. The conditions noted are these: CD at 221 nm, VTM; Z15171-Cys in HEPES/EDTA pH 7.2, 20 to 90° C.; His-tagged Z13178, Z13398 in PBS, to 80° C. The procedure:
The Z variant Z15171-Cys (SEQ ID NO:5), was diluted to 0.5 mg/ml in 20 mM HEPES, 1 mM EDTA, pH 7.2. A CD spectrum at 250-195 nm was obtained at 20° C. In addition, a variable temperature measurement (VTM) was performed to determine the melting temperature (Tm). In the VTM, the absorbance was measured at 221 nm while the temperature was raised from 20 to 90° C., with a temperature slope of 5° C./min. A new CD spectrum was obtained at 20° C. after the heating procedure in order to study the refolding ability of the Z variants. The CD measurements were performed on a Jasco J-810 spectropolarimeter (Jasco Scandinavia AB) using a cell with an optical path length of 1 mm. The His-tagged Z variants Z13178 (SEQ ID NO:2) and Z13398 (SEQ ID NO:4) were analyzed by CD spectroscopy as described above, but with the exceptions that PBS was used as analysis buffer and the temperature was raised to 80° C. in the VTM.

Where [3] appears, read: approximate, based on one concentration, 5 nM.

T1 sequence (H9Z833 19-239 limits assumed): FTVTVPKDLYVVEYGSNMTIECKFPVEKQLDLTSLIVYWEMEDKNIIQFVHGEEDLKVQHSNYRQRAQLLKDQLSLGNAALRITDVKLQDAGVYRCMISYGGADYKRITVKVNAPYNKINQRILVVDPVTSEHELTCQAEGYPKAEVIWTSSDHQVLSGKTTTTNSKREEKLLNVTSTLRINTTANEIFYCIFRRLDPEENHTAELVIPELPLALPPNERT

Take “Z13359: PD-L1 binding Z variant, 58 amino acid residues, SEQ ID NO:3; tested as ABD fusion or His6-tagged (VDAKYAKERTIAVWEIMDLPNLTSWQRGAFIDKLHDDPSQSSELLSEAKKLNDSQAPK; Engineered PD-L1 binding polypeptide)”: the “binding to RhPD-L1 in Biacore” value with RhPD-L1 is reported as “showed binding”. Moreover, in the series with RhPD-L1 (setting [3]), binding was put at a Kd of 20 nM, the “ka (1/Ms) RhPD-L1” value amounted to 490000 M⁻¹ s⁻¹ and the “kd (1/s) RhPD-L1” value came to 0.0097 s⁻¹.
Take “Z13166: PD-L1 binding Z variant, 58 amino acid residues, SEQ ID NO:1; tested as ABD fusion or His6-tagged (VDAKYAKERTVAVWEIVQLPNLTAWQKGAFINKLHDDPSQSSELLSEAKKLNDSQAPK; Engineered PD-L1 binding polypeptide)”: the “MFI (normalized)” value in series [1] is listed as 0.76.
Turning to “Z13398: PD-L1 binding Z variant, 58 amino acid residues, SEQ ID NO:4; tested as ABD fusion or His6-tagged (VDAKYAKERTMATWEIVQLPNLTARQKGAFIWKLHDDPSQSSELLSEAKKLNDSQAPK; Engineered PD-L1 binding polypeptide)”, the “MFI (normalized)” value in series [1] was found to be 0.94. Further, the “Tm (° C.)” value in series [2] came out at 53 °C.
